Laboratory results from PubChem BioAssay (NCI).
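Each compound was tested at five concentrations against cells in 96-well plates for 48 hours. At the GI50, growth is halved. TGI denotes the concentration required for complete inhibition of growth.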

Test system: NCI-H322M lung
Assay: growth of human tumour cells (NCI), 48 h

Structure (SMILES)	GI50	TGI
CO[C@H]1CSS[C@@H]1Cn1nc(-c2ccc(Oc3ccccc3)cc2)c2c(N)ncnc21	10.5 µM	70.8 µM
COc1ccc(NC(=O)N/N=C/c2c[nH]c3ccccc23)cc1	5.45 µM	> 100 µM
C/C(=N\N=C\c1cc([N+](=O)[O-])ccc1Cl)c1ccc2c(c1)Nc1ccccc1S2	17.2 µM	> 100 µM
CC1[C@H]2[C@H](C[C@H]3[C@@H]4CC=C5c6sc(Nc7ccccc7F)nc6CC[C@]5(C)[C@H]4CC[C@@]32C)O[C@]12CC[C@@H](C)CO2 (stereo not given in full)	> 100 µM	> 100 µM
COc1ccccc1[C@H]1C(C(=O)c2ccc(Cl)cc2)C2(N[C@@H]1c1ccccc1)C(=O)Nc1ccccc12 (stereo not given in full)	3.58 µM	57.2 µM
